Laboratory results from US20250170268A1, “METHODS AND TOOLS FOR CONJUGATION TO ANTIBODIES” (priority 2022, published 2025).
Positions count from the first letter of the chain named. “Also recorded” adds a separate entry of the source.

B1: ADC2-M (conjugate)
heavy: EVQLQESGPGLVKPSQTLSLTCTVSDGSVSRGGYYLTWIRQHPGKGLEWIGYIYYSGSTYFNPSLRSRVTMSVDTSKNQFSLKLSSVTAADTAVYYCARGIAVAPFDYWGQGTLVTVSSASTKGPSVFPLAPSSKSTSGGTAALGCLVKDYFPEPVTVSWNSGALTSGVHTFPAVLQSSGLYSLSSVVTVPSSSLGTQTYICNVNHKPSNTKVDKRVEPKSCDKTHTCPPCPAPEAAGGPSVFLFPPKPKDTLYITREPEVTCVVVDVSHEDPEVKFNWYVDGVEVHNAKTKPREEQYNSTYRVVSVLTVLHQDWLNGKEYKCKVSNKALPAPIEKTISKAKGQPREPQVYTLPPSREEMTKNQVSLTCLVKGFYPSDIAVEWESNGQPENNYKTTPPVLDSDGSFFLYSKLTVDKSRWQQGNVFSCSVMHEALHNHYTQKSLSLSPG
light: EIVLTQSPATLSVSPGERATLSCRTSQSVRSNLAWYQQKPGQAPRLLIYAASTRATGIPARFSGSGSGTEFTLTISSLQSEDFAVYYCQQYTNWPFTFGPGTKVDIKRTVAAPSVFIFPPSDEQLKSGTASVVCLLNNFYPREAKVQWKVDNALQSGNSQESVTEQDSKDSTYSLSSTLTLSKADYEKHKVYACEVTHQGLSSPVTKSFNRGECGGTLQSPP
B2: ADC7-M (conjugate)
heavy: EVQLQESGPGLVKPSQTLSLTCTVSDGSVSRGGYYLTWIRQHPGKGLEWIGYIYYSGSTYFNPSLRSRVTMSVDTSKNQFSLKLSSVTAADTAVYYCARGIAVAPFDYWGQGTLVTVSSASTKGPSVFPLAPSSKSTSGGTAALGCLVKDYFPEPVTVSWNSGALTSGVHTFPAVLQSSGLYSLSSVVTVPSSSLGTQTYICNVNHKPSNTKVDKRV[letters of human IgG1 Fc with changes left out]
light: B1 light
B3: ADC1-M (conjugate)
heavy: B1 heavy
light: EIVLTQSPATLSVSPGERATLSCRTSQSVRSNLAWYQQKPGQAPRLLIYAASTRATGIPARFSGSGSGTEFTLTISSLQSEDFAVYYCQQYTNWPFTFGPGTKVDIKRTVAAPSVFIFPPSDEQLKSGTASVVCLLNNFYPREAKVQWKVDNALQSGNSQESVTEQDSKDSTYSLSSTLTLSKADYEKHKVYACEVTHQGLSSPVTKSFNRGEC
B4: ADC6-M (conjugate)
heavy: EVQLQESGPGLVKPSQTLSLTCTVSDGSVSRGGYYLTWIRQHPGKGLEWIGYIYYSGSTYFNPSLRSRVTMSVDTSKNQFSLKLSSVTAADTAVYYCARGIAVAPFDYWGQGTLVTVSSASTKGPSVFPLAPSSKSTSGGTAALGCLVKDYFPEPVTVSWNSGALTSGVHTFPAVLQSSGLYSLSSVVTVPSSSLGTQTYICNVNHKPSNTKVDKRV[letters of human IgG1 Fc with changes left out]
light: B3 light
B5: ADC3-M (conjugate)
heavy: B1 heavy with K224R
light: B1 light
modifications: GGG-glucuronide-exatecan, DAR 4

Key:
[1] = Pharmacokinetic study in human FcRn transgenic mice; details: for C0 relative to theoretical maximal concentration: assuming dilution in 40 mL/kg plasma volume
[2] = tested on: human pancreatic, cell line derived xenograft model BxPC3; test: BxPC3 xenograft efficacy study; format: in vivo, mice (Hsd: Athymic Nude-Foxn1nu); details: single i.v. treatment day 0; ADC1-M 5 mg/kg; ADC2-M 5 mg/kg or 10 mg/kg
Procedure: Efficacy of ADC1-M and ADC2-M has been evaluated in the human pancreatic, cell line derived xenograft model BxPC3 (ATCC, CRL-1687). 5×10^6 BxPC3 cells were injected subcutaneously into the right flank of six to eight weeks old immunodeficient female mice (Hsd: Athymic Nude-Foxn1nu, Envigo). When tumors reached a mean volume of 85 mm^3, 10 mice/group were treated once intravenously with vehicle (saline solution) or ADC1-M (5 mg/kg; day 0) or with ADC2-M (5 mg/kg or 10 mg/kg; day 0). Tumor length (L) and width (W) were measured with calipers and tumor volumes were calculated using L×(W^2)/2.

[3] = tested on: CEACAM5-positive SK-CO-1 cells; test: Cell viability assay (Cell Titer-Glo, six days) on SK-CO-1; format: cell-based, human; details: at the highest tested compound concentration
Procedure: (§1) Cytotoxicity effects of the ADC on the cancer cell lines were measured by cell viability assays. Cells were seeded in a volume of 90 μL in 96-well plates the day before treatment. Test compounds (ADCs or free payloads) were formulated at 10-fold the starting concentration in cell culture medium. Test compounds were serial diluted (1:4) and 10 μL of each dilution was added to the cells in triplicates. Plates were cultured at 37° C. in a CO2 incubator for six days. For cell viability measurement, Cell Titer-Glo® reagent (Promega™ Corp, Madison, WI) was added to each well, and plates processed according to the manufacturer's instructions. Luminescence signals were measured using a Varioskan plate reader (Thermo Fisher). Luminescence readings were converted to % viability relative to untreated cells. Data was fitted with non-linear regression analysis, using log (inhibitor) vs. response, variable slope, 4-parameter fit equation using Genedata Screener or GraphPad Prism. Data is shown as % relative cell viability vs. molar compound concentration, error bars indicating standard deviation (SD) of duplicates or triplicates. Geometric mean values of IC50s derived from multiple experiments were calculated.
(§2) A fold reduction in IC50, defined as a S[…], was calculated by dividing the IC50 against CEACAM5-negative MDA-MB-231 cells by the IC50 against each CEACAM5-positive cell line (see Table 6). […]

[4] = tested on: CEACAM5-positive MKN-45 cells; test: Cell viability assay (Cell Titer-Glo, six days) on MKN-45; format: cell-based, human; details: at the highest tested compound concentration
Procedure: as §1, §2

[5] = tested on: CEACAM5-negative MDA-MB-231 cells in the presence of CEACAM5-positive SK-CO-1; test: Bystander assay, co-culture of antigen-negative and antigen-positive cells; format: cell-based, human; details: for non-specific effect on MDA-MB-231 only controls in bystander assay: 1E-9M, MDA-MB-231 cells alone; for bystander effect against CEACAM5-negative MDA-MB-231 cells: ADC concentration of 1 nM, co-culture with SK-CO-1
[6] = tested on: CEACAM5-positive cell lines; test: Cell viability assay, CEACAM5-positive cell lines taken together; format: cell-based, human
Procedure: as §1, §2

[7] = tested on: CEACAM5-positive LS174T cells; test: Cell viability assay (Cell Titer-Glo, six days) on LS174T; format: cell-based, human; details: at the highest tested compound concentration
Procedure: as §1

[8] = tested on: CEACAM5-negative MDA-MB-231 cells; test: Cell viability assay (Cell Titer-Glo, six days) on MDA-MB-231; format: cell-based, human
Procedure: as §1, §2

[9] = tested on: CEACAM5-positive SNU-16 cells; test: Cell viability assay (Cell Titer-Glo, six days) on SNU-16; format: cell-based, human; details: at the highest tested compound concentration
Procedure: as §1, §2

[10] = tested on: human pancreatic adenocarcinoma cell line-derived xenograft model HPAF-II; test: HPAF-II xenograft efficacy study; format: in vivo, mice (Hsd: Athymic Nude-Foxn1nu); details: for anti-tumor effect, HPAF-II xenograft, 1 or 6 mg/kg: single i.v. treatment at 1 or 6 mg/kg; for anti-tumor effect, HPAF-II xenograft, 1 mg/kg: single i.v. treatment with 1 mg/kg; for anti-tumor effect, HPAF-II xenograft, higher dosage: single i.v. treatment, higher dosage (6 mg/kg)
Procedure: Efficacy of ADC1-M and ADC3-M in comparison to ADC8 was evaluated in the human pancreatic adenocarcinoma cell line-derived xenograft model HPAF-II (ATCC, CRL-1997). Six to eight weeks old immunodeficient female mice (Hsd: Athymic Nude-Foxn1nu, Envigo) were injected subcutaneously in the right flank with 5×10^6 HPAF-II cells. When tumors reached a mean volume of 150 mm^3, 10 mice/group were treated once intravenously with ADC1-M (1 mg/kg or 6 mg/kg) or with ADC3-M (1 mg/kg or 6 mg/kg) or with ADC8 (1 mg/kg or 6 mg/kg). Tumor length (L) and width (W) were measured with calipers and tumor volumes were calculated using the formula L×W^2/2.

[11] = 3 mg/kg single i.v., HuFcRn mice

Molecule | AUCinf [1, 11] | AUClast [1, 11] | Vss [1, 11] | %_Ext (%) ([1]; % of extrapolated AUCinf, 3 mg/kg single i.v., HuFcRn mice) | C0 relative to theoretical maximal concentration [1] | PK profile ([1]; single iv administration of 3 mg/kg in transgenic mice) | anti-tumor effect, BxPC3 xenograft [2] | Maximal effect compared to untreated controls, SK-CO-1 [3] | Maximal effect compared to untreated controls, MKN-45 [4] | non-specific effect on MDA-MB-231 only controls in bystander assay [5] | bystander effect against CEACAM5-negative MDA-MB-231 cells [5] | in vitro potency against CEACAM5-positive cell lines [6] | Maximal effect compared to untreated controls, LS174T [7] | Maximal effect compared to untreated controls, MDA-MB-231 ([8]; at the highest tested compound concentration) | effects on CEACAM5-negative MDA-MB-231 cell viability ([8]; viability assay) | Maximal effect compared to untreated controls, SNU-16 [9] | anti-tumor effect, HPAF-II xenograft, 1 or 6 mg/kg [10] | anti-tumor effect, HPAF-II xenograft, 1 mg/kg [10] | anti-tumor effect, HPAF-II xenograft, higher dosage [10] | Tlast (h) [1, 11]
B1 | 10200 µg·h/mL | 8360 µg·h/mL | 0.0877 L/kg | 18.4% | slightly lower than theoretical maximal concentration | best PK profile | significant anti-tumor effect | (−92%) | (−80%) | no non-specific effect | potent bystander effect; also recorded: much more potent bystander effect | sub-nanomolar to single digit nanomolar | (−67%) | (−16%) | minor | (−78%) | – | – | – | –
B2 | 6140 µg·h/mL | 5720 µg·h/mL | – | – | – | – | – | – | – | no non-specific effect | potent bystander effect; also recorded: much more potent bystander effect | comparable results like the respective ADC with YTE mutation (ADC2-M) | – | – | – | – | – | – | – | –
B3 | 2590 µg·h/mL | 2580 µg·h/mL | – | – | slightly lower than theoretical maximal concentration | – | significant anti-tumor effect | – | – | no non-specific effect | potent bystander effect; also recorded: much more potent bystander effect | – | – | – | – | – | significant anti-tumor effect | mild and temporary anti-tumor effect | much stronger anti-tumor effect | –
B4 | 2850 µg·h/mL | 2850 µg·h/mL | – | – | – | – | – | – | – | no non-specific effect | potent bystander effect; also recorded: much more potent bystander effect | – | – | – | – | – | – | – | – | up to 336 h
B5 | – | – | – | – | – | – | – | – | – | – | – | – | – | – | – | – | significant anti-tumor effect | mild and temporary anti-tumor effect | much stronger anti-tumor effect | –
